Numbering of substitutions follows the chain as printed. No constants are given. Whether binding was seen depends on the method and setting. Binding seen in cells or lysates may run through a third protein. Some binding calls cover weakened binding; strength is not graded here. One block for each binder: values may come before it.
Key:
[1] = target: Keratin 16 (endogenous) (human (endogenous in HaCaT, CTRL and TOC keratinocytes)) (UniProt P08779); test: co-IP; endogenous proteins; anti-K16 antibody on Dynabeads, 2 mg lysate of HaCaT/CTRL or TOC keratinocytes, overnight at 4 °C, NP-40 wash buffer (50 mM Tris pH 8.0, 150 mM NaCl, 1 mM EDTA, 1% NP40); blots with anti-iRHOM2 and anti-iRHOM1
[2] = target: Keratin 16 (endogenous) (human (endogenous in HaCaT, CTRL and TOC keratinocytes)) (UniProt P08779); test: proximity ligation; Duolink in situ kit on fixed CTRL and TOC keratinocytes, endogenous proteins, signal when within 40 nm; also after cyclic mechanical stretch (Flexcell)

Protein sequences, listed by entry. Tags and fused reporters are not part of them.
UniProt P08779: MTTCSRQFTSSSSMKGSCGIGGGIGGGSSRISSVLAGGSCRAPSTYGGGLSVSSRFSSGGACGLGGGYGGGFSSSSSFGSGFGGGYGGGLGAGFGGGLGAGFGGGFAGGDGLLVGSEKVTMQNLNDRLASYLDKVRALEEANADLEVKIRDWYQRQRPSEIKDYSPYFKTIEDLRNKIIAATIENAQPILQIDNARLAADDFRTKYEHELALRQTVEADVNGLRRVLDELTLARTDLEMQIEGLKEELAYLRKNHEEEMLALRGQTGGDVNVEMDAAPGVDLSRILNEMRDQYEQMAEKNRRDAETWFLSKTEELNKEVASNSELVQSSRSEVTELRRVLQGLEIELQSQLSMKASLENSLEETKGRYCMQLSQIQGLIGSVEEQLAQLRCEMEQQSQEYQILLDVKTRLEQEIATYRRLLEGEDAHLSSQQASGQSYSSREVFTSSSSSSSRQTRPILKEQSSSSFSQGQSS

binding [1]: binds
binding [2]: binds
B1: iRHOM2 (endogenous, control keratinocytes) (protein, UniProt Q6PJF5 1-856)
chain: MASADKNGGSVSSVSSSRLQSRKPPNLSITIPPPEKETQAPGEQDSMLPEGFQNRRLKKSQPRTWAAHTTACPPSFLPKRKNPAYLKSVSLQEPRSRWQESSEKRPGFRRQASLSQSIRKGAAQWFGVSGDWEGQRQQWQRRSLHHCSMRYGRLKASCQRDLELPSQEAPSFQGTESPKPCKMPKIVDPLARGRAFRHPEEMDRPHAPHPPLTPGVLSLTSFTSVRSGYSHLPRRKRMSVAHMSLQAAAALLKGRSVLDATGQRCRVVKRSFAFPSFLEEDVVDGADTFDSSFFSKEEMSSMPDDVFESPPLSASYFRGIPHSASPVSPDGVQIPLKEYGRAPVPGPRRGKRIASKVKHFAFDRKKRHYGLGVVGNWLNRSYRRSISSTVQRQLESFDSHRPYFTYWLTFVHVIITLLVICTYGIAPVGFAQHVTTQLVLRNKGVYESVKYIQQENFWVGPSSIDLIHLGAKFSPCIRKDGQIEQLVLRERDLERDSGCCVQNDHSGCIQTQRKDCSETLATFVKWQDDTGPPMDKSDLGQKRTSGAVCHQDPRTCEEPASSGAHIWPDDITKWPICTEQARSNHTGFLHMDCEIKGRPCCIGTKGSCEITTREYCEFMHGYFHEEATLCSQVHCLDKVCGLLPFLNPEVPDQFYRLWLSLFLHAGVVHCLVSVVFQMTILRDLEKLAGWHRIAIIFILSGITGNLASAIFLPYRAEVGPAGSQFGLLACLFVELFQSWPLLERPWKAFLNLSAIVLFLFICGLLPWIDNIAHIFGFLSGLLLAFAFLPYITFGTSDKYRKRALILVSLLAFAGLFAALVLWLYIYPINWPWIEHLTCFPFTSRFCEKYELDQVLH

binding [1]: binds
binding [2]: binds
B2: iRHOM2 of TOC keratinocytes (p.Ile186Thr) (protein, UniProt Q6PJF5 1-856)
chain: B1 chain with I186T

binding [1]: no binding
B3: iRHOM1 (endogenous) (protein, UniProt Q96CC6 1-855)
chain: MSEARRDSTSSLQRKKPPWLKLDIPSAVPLTAEEPSFLQPLRRQAFLRSVSMPAETAHISSPHHELRRPVLQRQTSITQTIRRGTADWFGVSKDSDSTQKWQRKSIRHCSQRYGKLKPQVLRELDLPSQDNVSLTSTETPPPLYVGPCQLGMQKIIDPLARGRAFRVADDTAEGLSAPHTPVTPGAASLCSFSSSRSGFHRLPRRRKRESVAKMSFRAAAALMKGRSVRDGTFRRAQRRSFTPASFLEEDTTDFPDELDTSFFAREGILHEELSTYPDEVFESPSEAALKDWEKAPEQADLTGGALDRSELERSHLMLPLERGWRKQKEGAAAPQPKVRLRQEVVSTAGPRRGQRIAVPVRKLFAREKRPYGLGMVGRLTNRTYRKRIDSFVKRQIEDMDDHRPFFTYWLTFVHSLVTILAVCIYGIAPVGFSQHETVDSVLRNRGVYENVKYVQQENFWIGPSSEALIHLGAKFSPCMRQDPQVHSFIRSAREREKHSACCVRNDRSGCVQTSEEECSSTLAVWVKWPIHPSAPELAGHKRQFGSVCHQDPRVCDEPSSEDPHEWPEDITKWPICTKNSAGNHTNHPHMDCVITGRPCCIGTKGRCEITSREYCDFMRGYFHEEATLCSQVHCMDDVCGLLPFLNPEVPDQFYRLWLSLFLHAGILHCLVSICFQMTVLRDLEKLAGWHRIAIIYLLSGVTGNLASAIFLPYRAEVGPAGSQFGILACLFVELFQSWQILARPWRAFFKLLAVVLFLFTFGLLPWIDNFAHISGFISGLFLSFAFLPYISFGKFDLYRKRCQIIIFQVVFLGLLAGLVVLFYVYPVRCEWCEFLTCIPFTDKFCEKYELDAQLH

— PMC5290154
